# Measured values: a collection of fitness landscapes (doi:10.1016/j.celrep.2020.107928)
# In all, about 81,000 sequences were measured (“one-hybrid fitness for binding parS DNA”: median about -0.17, highest 2% from about 0.51 on). Some of the results follow.
# B1: Caulobacter ParB omega fusion; a variant is named by its letters at X, in order, B8GW30 (parent)
# chain: MESVVVGEPGMSEGRRGLGRGLSALLGEVDAAPAQAPGEQLGGSREAPIEILQRNPDQPRRTFREEDLEDLSNSIREKGVLQPILVRPSPDTAGEYQIVAGERAWRAAQRAGLKTVPIMVRELDDLAVLEIGIIENVQRADLNVLEEALSYKVLMEKFERTQENIAQTIGKSXSHVANXMRLLXLPDEVQSYLVSGELTAXHARAIAAAADPVALAKQIIEGGLSVRETEALARKAPNLSAGKSKGGRPPRVKDTDTQALESDLSSVLGLDVSIDHRGSTGTLTITYATLEQLDDLCNRLTRGI
# Variants of: B1
# Assay: one-hybrid fitness for binding parS DNA (scaled: cognate 1, non-cognate 0); higher = stronger binding
# Conditions: with parS DNA site
# How it was run: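 On M9-minus-histidine containing 0.1 mM IPTG and 5 mM 3-AT, E. coli USO cells with a HIS3 reporter, site 19 bp from the promoter, grew 48 hours at 37°C to select Caulobacter ParB libraries randomised at four specificity codons. Plasmids from before and after were Illumina-sequenced, with three replicate libraries pooled and variants under 10 reads left out. Fitness is the log change in variant-to-wild-type read ratio, rescaled against cognate and non-cognate.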
row,Variant,one-hybrid fitness for binding parS DNA
1,FPLR,≤ 0.2
2,PCMI,≤ 0.2
3,QKWR,≤ 0.2
4,QAPC,≤ 0.2
5,QYCK,≤ 0.2
6,CSVY,≤ 0.2
7,VGLG,≤ 0.2
8,ERRI,≤ 0.2
9,HHTR,≤ 0.2
10,TDWG,≤ 0.2
11,GSSE,≤ 0.2
12,ENTV,≤ 0.2
13,PAGG,≤ 0.2
14,DKCT,≤ 0.2
15,HNHL,≤ 0.2
16,SGMC,≤ 0.2
17,PDRT,≤ 0.2
18,DTLK,≤ 0.2
19,PAYY,≤ 0.2
20,PACK,≤ 0.2
21,LVQC,≤ 0.2
22,LMKE,≤ 0.2
23,RAIH,≤ 0.2
24,KLMC,≤ 0.2

row,Variant,one-hybrid fitness for binding parS DNA
1,TLCL,≤ 0.2
2,RQQW,≤ 0.2
3,RHVA,0.499
4,QEYM,≤ 0.2
5,CQQC,≤ 0.2
6,CARG,≤ 0.2
7,VHAF,≤ 0.2
8,RDER,≤ 0.2
9,TMFV,≤ 0.2
10,TTVN,≤ 0.2
11,PNSW,≤ 0.2
12,LITL,≤ 0.2
13,TVIS,≤ 0.2
14,RIRP,≤ 0.2
15,DMGS,≤ 0.2
16,MKES,≤ 0.2
17,SRAF,≤ 0.2
18,DNYC,≤ 0.2
19,PKKM,≤ 0.2
20,VLIP,≤ 0.2
21,RCWM,0.405
22,GQSK,≤ 0.2
23,IVLI,≤ 0.2
24,NNVN,≤ 0.2

row,Variant,one-hybrid fitness for binding parS DNA
1,RLRY,0.645
2,WHYR,≤ 0.2
3,HVKR,≤ 0.2
4,TCLR,≤ 0.2
5,RRWG,0.906
6,SENS,≤ 0.2
7,KSHM,≤ 0.2
8,TLMG,≤ 0.2
9,TMQN,≤ 0.2
10,CTSG,≤ 0.2
11,WMCG,≤ 0.2
12,QQHC,≤ 0.2
13,GITS,≤ 0.2
14,WIST,≤ 0.2
15,QNRF,≤ 0.2
16,PKSD,≤ 0.2
17,MALT,≤ 0.2
18,RAPW,≤ 0.2
19,MTTY,≤ 0.2
20,NHES,≤ 0.2
21,HGTK,≤ 0.2
22,RAPN,≤ 0.2
23,NQEL,≤ 0.2
24,PREN,≤ 0.2

row,Variant,one-hybrid fitness for binding parS DNA
1,FKSG,≤ 0.2
2,GGCL,≤ 0.2
3,AGKT,≤ 0.2
4,QTEC,≤ 0.2
5,AYVT,≤ 0.2
6,TNHS,≤ 0.2
7,ATQR,≤ 0.2
8,AWHL,≤ 0.2
9,STPD,≤ 0.2
10,SLHS,≤ 0.2
11,LYDR,≤ 0.2
12,VALL,≤ 0.2
13,ELVT,≤ 0.2
14,GEDM,≤ 0.2
15,RGMR,≤ 0.2
16,CWSY,≤ 0.2
17,KGKR,≤ 0.2
18,GARR,≤ 0.2
19,SRNE,≤ 0.2
20,TCSC,≤ 0.2
21,VCEA,≤ 0.2
22,YNYS,≤ 0.2
23,YRCV,≤ 0.2
24,VDEW,≤ 0.2

row,Variant,one-hybrid fitness for binding parS DNA
1,PLIY,≤ 0.2
2,HRNC,0.288
3,TCRM,≤ 0.2
4,GIYR,≤ 0.2
5,PSLR,≤ 0.2
6,HYVE,≤ 0.2
7,DYSR,≤ 0.2
8,CKKV,≤ 0.2
9,SWSS,≤ 0.2
10,AMYG,≤ 0.2
11,VLLY,≤ 0.2
12,KAIT,≤ 0.2
13,YTPC,≤ 0.2
14,QAMV,≤ 0.2
15,IYGT,≤ 0.2
16,VKAC,≤ 0.2
17,IGLW,≤ 0.2
18,NFGR,≤ 0.2
19,MADF,≤ 0.2
20,AMFN,≤ 0.2
21,WKIS,≤ 0.2
22,WKDG,≤ 0.2
23,VYWG,≤ 0.2
24,RMMK,≤ 0.2

row,Variant,one-hybrid fitness for binding parS DNA
1,EQWS,≤ 0.2
2,QIWP,≤ 0.2
3,SSRC,≤ 0.2
4,PAQW,≤ 0.2
5,NGMI,≤ 0.2
6,YPSD,≤ 0.2
7,KKGD,≤ 0.2
8,NVCW,≤ 0.2
9,ISPK,≤ 0.2
10,GAVR,≤ 0.2
11,KISD,≤ 0.2
12,NACT,≤ 0.2
13,EKGR,≤ 0.2
14,HCLQ,≤ 0.2
15,LWPR,≤ 0.2
16,VAPY,≤ 0.2
17,SCSF,≤ 0.2
18,LSHN,≤ 0.2
19,RPQW,≤ 0.2
20,CPTK,≤ 0.2
21,VGHH,≤ 0.2
22,YHIR,≤ 0.2
23,RFRP,≤ 0.2
24,QWAS,≤ 0.2

row,Variant,one-hybrid fitness for binding parS DNA
1,RGER,≤ 0.2
2,CQWC,≤ 0.2
3,PTWG,≤ 0.2
4,KWGC,≤ 0.2
5,AILW,≤ 0.2
6,HVCS,≤ 0.2
7,QISK,≤ 0.2
8,QWRK,≤ 0.2
9,AMRH,≤ 0.2
10,DTMT,≤ 0.2
11,NFQR,≤ 0.2
12,RSIL,≤ 0.2
13,PYKL,≤ 0.2
14,KPTV,≤ 0.2
15,IDAG,≤ 0.2
16,NEFC,≤ 0.2
17,GSPR,≤ 0.2
18,VCVC,≤ 0.2
19,EFNL,≤ 0.2
20,MPPV,≤ 0.2
21,FCQL,≤ 0.2
22,GYRG,≤ 0.2
23,GDAD,≤ 0.2
24,FHST,≤ 0.2

row,Variant,one-hybrid fitness for binding parS DNA
1,EWHR,≤ 0.2
2,FMNM,≤ 0.2
3,RPRQ,≤ 0.2
4,GEFG,≤ 0.2
5,QGSK,≤ 0.2
6,PQKP,≤ 0.2
7,EKTL,≤ 0.2
8,YPWR,≤ 0.2
9,SVEE,≤ 0.2
10,MIYW,≤ 0.2
11,ECHV,≤ 0.2
12,LPKF,≤ 0.2
13,IACN,≤ 0.2
14,WNLY,≤ 0.2
15,ADVN,≤ 0.2
16,QVQC,≤ 0.2
17,ATAG,≤ 0.2
18,PRQA,≤ 0.2
19,LRPL,≤ 0.2
20,VFVQ,≤ 0.2
21,GPQK,≤ 0.2
22,TEYY,≤ 0.2
23,FCIV,≤ 0.2
24,NCSD,≤ 0.2

row,Variant,one-hybrid fitness for binding parS DNA
1,MAIA,≤ 0.2
2,ERSS,≤ 0.2
3,ATKI,≤ 0.2
4,THFE,≤ 0.2
5,PPTG,≤ 0.2
6,YYER,≤ 0.2
7,WKER,≤ 0.2
8,RGKT,0.712
9,WQTA,≤ 0.2
10,GCMC,≤ 0.2
11,LGKY,≤ 0.2
12,FMVG,≤ 0.2
13,NYTW,≤ 0.2
14,CSDA,≤ 0.2
15,LKVQ,≤ 0.2
16,YSPL,≤ 0.2
17,LDRY,≤ 0.2
18,DCIG,≤ 0.2
19,MLCF,≤ 0.2
20,FNDL,≤ 0.2
21,LCWT,≤ 0.2
22,AMCR,≤ 0.2
23,TTQL,≤ 0.2
24,YMFG,≤ 0.2

row,Variant,one-hybrid fitness for binding parS DNA
1,RNQT,0.74
2,YQQG,≤ 0.2
3,VRRY,≤ 0.2
4,MEYT,≤ 0.2
5,DAKG,≤ 0.2
6,LRWC,≤ 0.2
7,IGPM,≤ 0.2
8,PPPD,≤ 0.2
9,SNGQ,≤ 0.2
10,RINY,0.513
11,TRPC,≤ 0.2
12,QNRL,≤ 0.2
13,KIRC,≤ 0.2
14,KRHW,≤ 0.2
15,SMKH,≤ 0.2
16,GTVD,≤ 0.2
17,HERS,≤ 0.2
18,AIIY,≤ 0.2
19,EMMY,≤ 0.2
20,VTFS,≤ 0.2
21,GACL,≤ 0.2
22,RTLD,≤ 0.2
23,IHWG,≤ 0.2
24,AALQ,≤ 0.2

row,Variant,one-hybrid fitness for binding parS DNA
1,KIAS,≤ 0.2
2,PFTC,≤ 0.2
3,QCCD,≤ 0.2
4,NTMA,≤ 0.2
5,AINV,≤ 0.2
6,GHAI,≤ 0.2
7,HVGR,≤ 0.2
8,RIGP,≤ 0.2
9,VSHL,≤ 0.2
10,TDCT,≤ 0.2
11,QENS,≤ 0.2
12,LVMG,≤ 0.2
13,YPLR,≤ 0.2
14,GVVG,≤ 0.2
15,RKYC,0.925
16,YTRI,≤ 0.2
17,EIVG,≤ 0.2
18,DRKI,≤ 0.2
19,TKAL,≤ 0.2
20,FFTW,≤ 0.2
21,SAKT,≤ 0.2
22,YMPP,≤ 0.2
23,KFLS,≤ 0.2
24,APKF,≤ 0.2

row,Variant,one-hybrid fitness for binding parS DNA
1,PELY,≤ 0.2
2,YICS,≤ 0.2
3,MYRR,≤ 0.2
4,KAGG,≤ 0.2
5,TTTV,≤ 0.2
6,SFTM,≤ 0.2
7,HHAG,≤ 0.2
8,FTNK,≤ 0.2
9,DYES,≤ 0.2
10,EVDN,≤ 0.2
11,TRVH,≤ 0.2
12,NGSK,≤ 0.2
13,NNWR,≤ 0.2
14,CTSF,≤ 0.2
15,DYET,≤ 0.2
16,WFGY,≤ 0.2
17,HWPR,≤ 0.2
18,YVLV,≤ 0.2
19,CHPG,≤ 0.2
20,DDSM,≤ 0.2
21,NLEL,≤ 0.2
22,YSHW,≤ 0.2
23,QTSK,≤ 0.2
24,PECW,≤ 0.2

row,Variant,one-hybrid fitness for binding parS DNA
1,KGWF,≤ 0.2
2,PRNS,≤ 0.2
3,KKEP,≤ 0.2
4,GWWE,≤ 0.2
5,TAQE,≤ 0.2
6,NTLI,≤ 0.2
7,RFRT,0.9
8,TRMQ,≤ 0.2
9,VSWR,≤ 0.2
10,CNER,≤ 0.2
11,NRST,≤ 0.2
12,VRAH,≤ 0.2
13,VVNG,≤ 0.2
14,NHKT,≤ 0.2
15,DAYD,≤ 0.2
16,SAIK,≤ 0.2
17,HLVS,≤ 0.2
18,YTPI,≤ 0.2
